Experimental data: patent US20210228731A1, “ANTIBODY DRUG CONJUGATES FOR ABLATING HEMATOPOIETIC STEM CELLS” (NOVARTIS AG, priority 2018, published 2021)
Positions count from the first letter of the chain named. Names may count otherwise. “Also recorded” adds a separate entry of the source.

B1: anti-cKIT Fab3 (HC-E152C): anti-cKIT Fab fragment with heavy chain E152C (Cys Fab HC SEQ ID NO: 130) (antibody)
heavy: QVQLVQSGAEVKKPGSSVKVSCKASGGTFSSYAISWVRQAPGQGLEWMGTIGPFEGQPRYAQKFQGRVTITADESTSTAYMELSSLRSEDTAVYYCARGGYISDFDVWGQGTLVTVSSASTKGPSVFPLAPSSKSTSGGTAALGCLVKDYFPCPVTVSWNSGALTSGVHTFPAVLQSSGLYSLSSVVTVPSSSLGTQTYICNVNHKPSNTKVDKKVEPKSCD
modifications: light chain not cited
B2: anti-cKIT F(ab′2)2: F(ab′)2 fragment of anti-cKIT Ab2 (antibody)
heavy: EVKLEQSGPGLVKPSQSLSLTCSVTGYSITSGYYWNWIRQFPGNKLEWMSYISYDGDNNYNPSLKNRISITRDTSKNQFFLKLSSVTTEDTATYYCAGGYYRYGLSYYYVMDYWGQGTSVTVSAASTKGPSVFPLAPSSKSTSGGTAALGCLVKDYFPEPVTVSWNSGALTSGVHTFPAVLQSSGLYSLSSVVTVPSSSLGTQTYICNVNHKPSNTKVDKRVEPKSC
light: DIKMTQSPASLAVSLGQRATISCKASQSVDYDGNSYMNWYQQKPGQPPKLLIYAASNLESGIPARFSGSGSGTDFTLNIHPVEEEDAATYYCQQSNEDPPTFGGGTKLELKRTVAAPSVFIFPPSDEQLKSGTASVVCLLNNFYPREAKVQWKVDNALQSGNSQESVTEQDSKDSTYSLSSTLTLSKADYEKHKVYACEVTHQGLSSPVTKSFNRGEC
B3: J26 (conjugate)
heavy: QVQLVQSGAEVKKPGSSVKVSCKASGGTFSSHALSWVRQAPGQGLEWMGGIIPSFGTADYAQKFQGRVTITADESTSTAYMELSSLRSEDTAVYYCARGLYDFDYWGQGTLVTVSSASTKGPSVFPLAPSSKSTSGGTAALGCLVKDYFPEPVTVSWNSGALTSGVHTFPAVLQSSGLYSLSSVVTVPSSSLGTQTYICNVNHKPSNTKVDKRVEPKSCDKTHTCPPCPAP
light: DIQMTQSPSSLSASVGDRVTITCRASQDISQDLAWYQQKPGKAPKLLIYDASSLQSGVPSRFSGSGSGTDFTLTISSLQPEDFAVYYCQQYYYLPSTFGQGTKVEIKRTVAAPSVFIFPPSDEQLKSGTASVVCLLNNFYPREAKVQWKVDNALQSGNSQESVTEQDSKDSTYSLSSTLTLSKADYEKHKVYACEVTHQGLSSPVTKSFNRGEC
modifications: LP2 linker-payload, DAR 4
B4: J29 (conjugate)
heavy: QVQLVQSGAEVKKPGSSVKVSCKASGGTFSSYAISWVRQAPGQGLEWMGTIGPFEGQPRYAQKFQGRVTITADESTSTAYMELSSLRSEDTAVYYCARGGYISDFDVWGQGTLVTVSSASTKGPSVFPLAPSSKSTSGGTAALGCLVKDYFPEPVTVSWNSGALTSGVHTFPAVLQSSGLYSLSSVVTVPSSSLGTQTYICNVNHKPSNTKVDKRVEPKSCDKTHTCPPCPAP
light: B3 light with D28S, Q31N, D32Y, V85T, L94E, P95S, S96I
modifications: LP2 linker-payload, DAR 4
B5: J30 (conjugate)
heavy: B4 heavy with T50V, G52F, F54A, Q57A, R59G
light: B3 light with D28S, Q31N, D32Y, V85T, L94E, P95S, S96I
modifications: LP2 linker-payload, DAR 4
B6: J10 (conjugate)
heavy: QVQLVQSGAEVKKPGSSVKVSCKASGGTFSSHALSWVRQAPGQGLEWMGGIIPSFGTADYAQKFQGRVTITADESTSTAYMELSSLRSEDTAVYYCARGLYDFDYWGQGTLVTVSSASTKGPSVFPLAPSSKSTSGGTAALGCLVKDYFPEPVTVSWNSGALTSGVHTFPAVLQSSGLYSLSSVVTVPSSSLGTQTYICNVNHKPSNTKVDKRVEPKSCDKTHTCPPCPAPELLG
light: B3 light
B7: J11 (conjugate)
heavy: B6 heavy
light: B3 light
B8: J15 (conjugate)
heavy: B4 heavy with T50V, G52F, F54A, Q57A, R59G
light: B3 light with D28S, Q31N, D32Y, V85T, L94E, P95S, S96I
B9: J16 (conjugate)
heavy: B4 heavy with T50V, G52F, F54A, Q57A, R59G
light: B3 light with D28S, Q31N, D32Y, V85T, L94E, P95S, S96I

Key:
[1] = tested on: human peripheral blood HSC-derived mast cells; assay: In vitro human mast cell degranulation assay (beta-hexosaminidase release); assay type: cell-based; settings: test agents 0.006-25 nM cross-linked with antibody specific for the Fab portion; absence of SCF
Protocol: Mature mast cells were generated using CD34+ progenitors from mobilized peripheral blood. CD34+ cells were cultured in StemSpan SFEM (StemCell Technologies) supplemented with recombinant human stem cell factor (rhSCF, 50 ng/ml, Gibco), recombinant human interleukin 6 (rhIL-6, 50 ng/ml, Gibco), recombinant human IL-3 (30 ng/ml, Peprotech), GlutaMAX ([…], Gibco), penicillin (100 U/ml, Hyclone) and streptomycin (100 μg/ml, Hyclone). Recombinant hll-3 was added only during the first week of the culture. After the third week, half of the medium was replaced weekly with fresh medium containing rhIL-6 (50 ng/ml) and rhSCF (50 ng/ml). Mature mast cell purity was evaluated by surface staining of high-affinity IgE receptor (FCεRI, eBioscience) and CD117 (BD). Cells were used between week 8 and 12 of the culture.
The derived mast cells were washed once to remove SCF, and the required amount of cells was incubated overnight in mast cell medium containing rhIL-6 (50 ng/ml) with or without rhSCF (50 ng/ml). As positive control for mast cell degranulation, a portion of the cells were sensitized with human myeloma IgE (100 ng/ml, EMD Millipore). The following day, anti-cKIT antibody or antibody fragments or toxin conjugates thereof, mouse monoclonal anti-human IgG1 (Fab specific, Sigma), goat anti-human IgE (Abcam) and compound 48/80 (Sigma) dilutions were prepared in HEPES degranulation buffer (10 mM HEPES, 137 mM NaCl, 2.7 mM KCl, 0.4 mM sodium phosphate dibasic, 5.6 mM glucose, pH adjusted at 7.4 and mixed with 1.8 mM calcium chloride and 1.3 mM magnesium sulfate) supplemented with 0.04% bovine serum albumin (BSA, Sigma). Test agents and anti-IgG1 were mixed together in a V-bottom 384-well assay plate while anti-IgE and compound 48/80 were tested alone. The assay plate was incubated 30 min at 37° C. During the incubation, cells were washed 3 times with HEPES degranulation buffer+0.04% BSA to remove medium and unbound IgE. Cells were resuspended in HEPES degranulation buffer+0.04% BSA and seeded at 3000 cells per well in the assay plate for a final reaction volume of 50 μl. Cells that were sensitized with IgE were used only with anti-IgE as a positive control for degranulation. The assay plate was incubated 30 min at 37° C. for degranulation to occur. During this incubation, p-nitro-N-acetyl-pi-D-gluosamine (pNAG, Sigma) buffer was prepared by sonicating 3.5 mg/ml of pNAG in citrate buffer (40 mM citric acid, 20 mM sodium phosphate dibasic, pH 4.5). β-hexosaminidase release was measured by mixing 20 μl of cell supernatant with 40 μl of pNAG solution in a flat-bottom 384-well plate. This plate was incubated for 1.5 hour at 3700, and the reaction was stopped by the addition of 40 μl of stop solution (400 mM glycine, pH 10.7). Absorbance was read using a plate reader at λ=405 nm with reference filter at λ=620 nm.
Mature mast cells were generated and tested with anti-cKIT antibody and F(ab′)2 and Fab fragments as described in Example 6.

[2] = tested on: human HSCs in humanized NSG mice; assay: In vivo ablation of human HSCs from mouse host; settings: 10 mg/kg twice per day for 2 days intraperitoneally, bone marrow analyzed day 21
[3] = tested on: Human mobilized peripheral blood hematopoietic stem cells (HSCs); assay: In vitro human HSC cell killing / viability assay; assay type: cell-based; settings: 7 days culture, FACS

Molecule | mast cell degranulation (beta-hexosaminidase release) when cross-linked [1] | human HSCs (human CD45+, human CD34+, human CD38-) in bone marrow [2] | EC50 (ng/ml), cell viability, Human CD34 + cells [3] [ng/mL] | EC50 (ng/ml), cell viability, Human CD90 + cells [3] [ng/mL] | EC50 (ng/ml), cell viability, Human total nucleated cells [3] [ng/mL]
B1 | no mast cell degranulation was triggered |  |  |  | 
B2 | caused mast cell degranulation when cross-linked |  |  |  | 
B3 |  | showed reduced human HSCs; also recorded: able to ablate human HSCs in vivo |  |  | 
B4 |  | showed reduced human HSCs; also recorded: able to ablate human HSCs in vivo |  |  | 
B5 |  | showed reduced human HSCs; also recorded: able to ablate human HSCs in vivo |  |  | 
B6 |  |  | 57 | 59 | 35
B7 |  |  | 27 | 41 | 16
B8 |  |  | 151 | 229 | 115
B9 |  |  | 43 | 89 | 29
